# According to paper PMC4336329 (PLoS ONE, 2015):
# Among all 310,000 compounds or so, about 2,200 (0.71%) showed an effect of 50% or more. Effects have a minus sign here. This is one part of the list.
# Biological target: human ether-à-go-go-related gene (hERG) potassium channel (human, UniProt Q12809)
# Experiment: primary screen, population patch clamp on CHO cells stably expressing hERG
# Chain of human ether-à-go-go-related gene (hERG) potassium channel (Q12809 whole entry, looked up): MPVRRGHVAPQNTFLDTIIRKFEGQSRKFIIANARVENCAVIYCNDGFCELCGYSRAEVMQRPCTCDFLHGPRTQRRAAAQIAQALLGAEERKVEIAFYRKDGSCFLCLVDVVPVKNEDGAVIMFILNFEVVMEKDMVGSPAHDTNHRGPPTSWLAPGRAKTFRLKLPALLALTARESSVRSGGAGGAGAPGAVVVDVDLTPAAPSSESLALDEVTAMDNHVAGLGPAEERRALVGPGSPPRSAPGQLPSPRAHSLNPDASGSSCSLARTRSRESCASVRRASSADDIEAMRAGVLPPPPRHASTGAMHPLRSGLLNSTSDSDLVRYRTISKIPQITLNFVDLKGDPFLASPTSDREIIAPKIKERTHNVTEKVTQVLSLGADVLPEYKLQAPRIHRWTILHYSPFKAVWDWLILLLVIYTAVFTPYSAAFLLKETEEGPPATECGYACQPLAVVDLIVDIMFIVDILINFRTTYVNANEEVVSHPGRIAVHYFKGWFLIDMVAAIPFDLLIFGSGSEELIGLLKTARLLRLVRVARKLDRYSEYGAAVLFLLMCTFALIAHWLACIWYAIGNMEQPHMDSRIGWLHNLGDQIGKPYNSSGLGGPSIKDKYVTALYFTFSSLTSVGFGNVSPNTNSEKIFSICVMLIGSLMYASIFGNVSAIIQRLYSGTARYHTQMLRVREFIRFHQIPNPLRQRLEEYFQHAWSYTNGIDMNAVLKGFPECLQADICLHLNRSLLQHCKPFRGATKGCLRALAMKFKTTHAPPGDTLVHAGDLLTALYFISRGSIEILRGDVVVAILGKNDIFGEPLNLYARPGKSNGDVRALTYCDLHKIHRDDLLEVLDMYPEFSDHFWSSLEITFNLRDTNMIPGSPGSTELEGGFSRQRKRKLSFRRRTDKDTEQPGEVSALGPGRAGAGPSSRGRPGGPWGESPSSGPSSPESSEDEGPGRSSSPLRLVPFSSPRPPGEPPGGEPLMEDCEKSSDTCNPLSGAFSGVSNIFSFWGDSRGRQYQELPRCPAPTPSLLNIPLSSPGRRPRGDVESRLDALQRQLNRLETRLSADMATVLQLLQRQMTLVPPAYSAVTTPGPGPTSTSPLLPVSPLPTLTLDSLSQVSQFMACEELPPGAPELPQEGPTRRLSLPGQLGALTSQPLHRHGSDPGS
row,Compound,"hERG current change (%, negative = inhibition) at 1uM [%]"
1,CCn1c(O)c(N=NC(=O)CNC(=O)/C=C/c2ccccc2)c2ccccc21,5.65
2,CC(C)Oc1ncnc2c1[nH]c1ccccc12,11.9
3,CCC(Sc1nc2sc(C(=O)OC)c(C)c2c(=O)n1N)C(=O)N(CC)CC (stereo not drawn),7.93
4,O=C(NC1CCN(S(=O)(=O)c2cccc([N+](=O)[O-])c2)CC1)C1CCCCC1,17.5
5,COC(=O)[C@H](C)NC(=O)Nc1cccc(C)c1,13.2
6,c1ccc(-c2cnc(-c3ccccc3)nc2)cc1,2.59
7,CCCOC(=O)c1c(N)sc2c1CCC2,15.5
8,Cc1ccc(-c2csc(NCCn3c(-c4ccncc4)nc4ccccc43)n2)cc1,10.8
9,CC(/C=N/NC(=O)c1cccc(F)c1)=C\c1ccccc1,13.8
10,COc1ccc(N=C2C(=Nc3ccc(OC)cc3)N(c3ccccc3)C(=S)N2C(=O)c2ccc(Cl)cc2)cc1,13.2
11,COc1ccccc1-n1c(SCC(=O)NC2CCS(=O)(=O)C2)nc2ccccc2c1=O (stereo not drawn),7.29
12,COc1ccc(NC(=O)COC(=O)CCC(=O)c2cccs2)cc1OC,2.62
13,CCOC(=O)c1cn(-c2ccccc2)nc1-c1ccncc1,0.949
14,CCn1cc(/C=N\NC(=O)Cc2ccc([N+](=O)[O-])cc2)c(C)n1,-2.04
15,O=C(N/C=C/c1ccccc1)c1ccccc1,19.5
16,Cc1ccc2[nH]cc(CCNS(=O)(=O)c3ccc(F)cc3)c2c1,8.16
17,Cc1cc(NC(=O)CCN2C(=O)/C(=C/c3ccccc3F)SC2=S)no1,12.2
18,Cc1cc(C)cc(NC(=O)COC(=O)CCCC2=NS(=O)(=O)c3ccccc3N2)c1,4.27
19,CCCn1nc2ccccc2c1P(=N)(N1CCOCC1)N1CCOCC1.Cl,13.9
20,OC(COc1ccc(CNCCc2ccccc2F)cc1)CN1CCCCC1 (stereo not drawn),4.53
21,Clc1ccc(/C=C/c2nc3ccccc3[nH]2)c(Cl)c1,-5.59
22,COC(=O)c1ccc(CNC(=O)C2CCC(=O)N(CCN3CCOCC3)C2)cc1 (stereo not drawn),2.84

row,Compound,"hERG current change (%, negative = inhibition) at 1uM [%]"
1,CCN(CC(=O)Nc1c(F)cccc1F)C(=O)C1CCN(S(=O)(=O)c2ccc(C)cc2C)CC1,-5.01
2,CC(C)[C@H]1C(=O)O[C@H](C(C)C)C(=O)N(C)[C@@H](C(C)C)C(=O)O[C@H](C(C)C)C(=O)N(C)[C@@H](C(C)C)C(=O)O[C@H](C(C)C)C(=O)N1C,7.64
3,Oc1c(Cl)cc(Cl)c(Cl)c1Cc1c(O)c(Cl)cc(Cl)c1Cl,12.9
4,CCC1CCCCN1CCCNC(=O)Cn1ncc2c(C)n(Cc3ccccc3Cl)c(C)c2c1=O (stereo not drawn),3.48
5,O=C(Cn1nc(C(=O)O)c2ccccc2c1=O)NC12CC3CC(CC(C3)C1)C2,8.28
6,CCc1cc2c(s1)N(CC(=O)OC)C(=O)CN=C2c1ccccc1OC,11.1
7,CC1=CS(=O)(=O)CC1SC(=S)N(C)C1CCS(=O)(=O)C1 (stereo not drawn),24.3
8,Cc1cccc(NC(=S)Nc2cccc3ccccc23)c1,13.1
9,CC(C)(C)NC(=O)CSC(=Nc1ccccc1F)NC#N,8.27
10,CCn1c(=O)cc(OCC(=O)NCCc2cccc(C)c2)c2ccccc21,-1.1
11,CCN1C(=O)c2ccccc2Sc2ccc(C(=O)NCCCN3CCOCC3)cc21,6.17
12,CSc1nc2ccccc2n1Cc1cccc(F)c1,5.15
13,CC(C)(C)c1ccc(C(=O)CSc2nc3ccccc3c(=O)[nH]2)cc1,-7.51
14,CCCCOC(=O)CNc1n[nH]c(=S)[nH]c1=O,10.5
15,CCSc1nnc(NC(=O)c2c(C)noc2C)s1,11
16,Cc1ccc(S(=O)(=O)NCC(=O)N2CCN(c3ccccc3F)CC2)cc1,-4.09
17,CCC(=O)Nc1ccc(NC(=O)CSc2nc3cc4c(cc3cc2C)CCC4)cc1,6.79
18,Cn1c(SCC(=O)C(C)(C)C)nnc1-c1cccnc1,0.695
19,O=c1c(C=Nc2cccc(C(F)(F)F)c2)c[nH]n1-c1cccc(Cl)n1,12.3
20,CCOC(=O)c1sc(NC(=O)CSc2nc3c(c(=O)n2-c2ccc(C)cc2)SCC3)c(C(=O)OCC)c1C,10.2
21,CC(C)C[C@H]1CN=C(Nc2ccccc2)N1CC1CCC1,-2.29
22,Cn1c(=O)[nH]c(=O)c2c1nc(N1CCCCCC1)n2CCSc1nc2ccccc2o1,7.86

row,Compound,"hERG current change (%, negative = inhibition) at 1uM [%]"
1,O=C(COC(=O)Cc1cccc(C(F)(F)F)c1)Nc1ccccc1,13.8
2,CCn1ncc(CN2CCN(Cc3ccc(OC)c(C)c3C)C(CCO)C2)c1C (stereo not drawn),2.28
3,O=C(CCN1C(=O)COc2ccccc21)NCCN1CCOCC1,13.2
4,O=C(Cn1cnc([N+](=O)[O-])c1)Nc1ccccc1C(F)(F)F,0.327
5,CCN(CC)S(=O)(=O)c1ccc(C(=O)NC(=S)N(CCC#N)Cc2cccnc2)cc1,8.4
6,CCn1c(SCC(=O)Nc2ccc3c(c2)OCO3)nnc1-c1cnccn1,-5.88
7,NC(=O)C1CCN(C(=O)c2cnn(-c3ccccc3)c2NC(=O)c2ccco2)CC1,7.41
8,Cc1nnc(N(Cc2ccco2)C(=O)c2ccno2)s1,12.3
9,O=c1ccc2ccc(Oc3ccc(Cl)cc3[N+](=O)[O-])cc2o1,12.3
10,O=C(CN1CCN(c2ccccc2)CC1)N1N=CCC1c1ccccc1 (stereo not drawn),10.8
11,COC(=O)CCC/C=C1/SCC(NC(=O)c2ccccc2)C1=O (stereo not drawn),5.35
12,COC(=O)Cn1c(=NC(=O)c2cc(OC)cc(OC)c2)sc2cc(OC)ccc21,16
13,O=C(COC(=O)/C=C/c1cccc(C(F)(F)F)c1)NC(c1ccccc1)c1ccccc1,-0.78
14,CN(C(=O)COC(=O)c1cc(-c2ccccc2Cl)nc2ccccc12)C1CCS(=O)(=O)C1 (stereo not drawn),1.78
15,CCc1cc2cc(OC)ccc2nc1SCC(=O)NNC(=O)c1ccco1,13.5
16,O=S(=O)(c1cccc2cccnc12)n1cnc2ccccc21,1.23
17,CC(=O)c1ccc(OCC(=O)OCc2cc(-c3ccco3)on2)cc1,13.7
18,COc1cccc(C(C(=O)NC2CCCC2)N(C(=O)c2ccco2)c2ccc(NC(C)=O)cc2)c1OC (stereo not drawn),-2.39
19,CN(C)CCCNc1nc(N)c([N+](=O)[O-])c(NC2CCCCC2)n1,-4.92
20,O=C(Nc1ccc(Br)cc1)C1CCN(C(=O)c2ccc(F)cc2)CC1,-13.2
21,O=C(NCC1CCCO1)C(=O)N/N=C/c1c(F)cccc1Cl (stereo not drawn),8.49
22,Cc1ccc(S(=O)(=O)N2CCN(CC(=O)NC(=O)NCc3ccco3)CC2)cc1C,7.92

row,Compound,"hERG current change (%, negative = inhibition) at 1uM [%]"
1,CCC1CCCCN1CCCNC(=O)C1CCN(c2ncnc3c2nc2n3CCCCC2)CC1 (stereo not drawn),2.36
2,CN1c2ccccc2C(C)(C)C12C=Nc1c(ccc3ccccc13)O2 (stereo not drawn),16.4
3,CCCCNC(=O)C1CCN(Cc2ccc(OCc3ccccc3)c(OC)c2)CC1.O=C(O)C(=O)O,-21.1
4,CCCn1c(SCC(=O)NCCc2ccc(Cl)cc2Cl)n[nH]c1=O,2.34
5,CC12CCC(=O)N1C(C(=O)NCCN1C(=O)S/C(=C\c3ccc(F)cc3)C1=O)CS2 (stereo not drawn),-0.0399
6,CC(C)c1ccc2[nH]c(O)c(N=NC(=O)c3ccc(CSc4nncn4C)cc3)c2c1,-0.234
7,Cc1ccc(C)c(NC(=O)c2ccc3c(=O)n4c(nc3c2)CCC4)c1,-5.65
8,COc1ccc(OC)c2c(N3CCN(C)CC3)cc(C(F)(F)F)nc12,14.3
9,CN1CCN(CCCNC(=O)c2ccc(Cn3c(=S)[nH]c4ccc(Br)cc4c3=O)cc2)CC1,9.37
10,Clc1ccc(-c2nnc(CNC3CC3)o2)cc1,-3.48
11,CN(CC(=O)Nc1cc(S(=O)(=O)N2CCCC2)ccc1Cl)Cc1cccs1,4.58
12,Cc1nn(-c2ccccc2)c(Cl)c1/C=N/NC(N)=O,11.7
13,CCCC(=O)c1cc2c(cc1NC(=O)c1cccs1)OCCO2,21.4
14,COC(=O)C(CC(=O)c1ccccc1)CC(=O)c1ccccc1,8.13
15,CCc1ccccc1NC(=O)Nc1cnccn1,1.23
16,Cc1ccccc1OCC(=O)N(Cc1cccc(F)c1)C1CCS(=O)(=O)C1 (stereo not drawn),10.1
17,COc1cccc(-c2cc(-c3cccnc3)c(C#N)c(N)n2)c1,6.74
18,CC(=O)OC[C@H]1COc2ccc3ccccc3c2[C@H]1N(C)C(C)=O,-3.9
19,O=C(NN=C1CCCC1)c1sc2ccccc2c1Cl,-9.75
20,C=CCON1C(=O)c2ccccc2C1=O,17
21,Cc1ccc2nc(Cl)c(C3CC(c4ccco4)=NN3C(=O)CCCC(=O)O)cc2c1 (stereo not drawn),8.17
